Test results published in patent publication EP0980382B1, “ESTROGENIC 19-NORANDROST-17-ONE DERIVATIVES WITH AN AROMATIC B-RING” (Wyeth, priority 1997, dated 1998).

System: Immature rats
Test: In vivo uterotropic activity

SMILES | uterine weight (100 µg for three days S.C.) [mg] | uterine weight (0.5 µg, positive control) [mg]
C[C@]12CCc3c(ccc4c3CC[C@H](O)C4)[C@@H]1CCC2=O (stereo in doubt) | 54.63 ± 5.2 | 
C#C[C@]1(O)CC[C@H]2[C@@H]3CCc4cc(O)ccc4[C@H]3CC[C@@]21C [ethinyl estradiol] |  | 92.68 ± 7.6
